# Reference: the supplement of paper PMC3334620
# The full ranking holds about 33,000 sequences; the median of “E-score (-0.5 to 0.5)” is about -0.054, and the highest 2% start at about 0.35. This is one part of the list.
# Target: T1, Stb5 (UniProt P38699)
# T1 sequence: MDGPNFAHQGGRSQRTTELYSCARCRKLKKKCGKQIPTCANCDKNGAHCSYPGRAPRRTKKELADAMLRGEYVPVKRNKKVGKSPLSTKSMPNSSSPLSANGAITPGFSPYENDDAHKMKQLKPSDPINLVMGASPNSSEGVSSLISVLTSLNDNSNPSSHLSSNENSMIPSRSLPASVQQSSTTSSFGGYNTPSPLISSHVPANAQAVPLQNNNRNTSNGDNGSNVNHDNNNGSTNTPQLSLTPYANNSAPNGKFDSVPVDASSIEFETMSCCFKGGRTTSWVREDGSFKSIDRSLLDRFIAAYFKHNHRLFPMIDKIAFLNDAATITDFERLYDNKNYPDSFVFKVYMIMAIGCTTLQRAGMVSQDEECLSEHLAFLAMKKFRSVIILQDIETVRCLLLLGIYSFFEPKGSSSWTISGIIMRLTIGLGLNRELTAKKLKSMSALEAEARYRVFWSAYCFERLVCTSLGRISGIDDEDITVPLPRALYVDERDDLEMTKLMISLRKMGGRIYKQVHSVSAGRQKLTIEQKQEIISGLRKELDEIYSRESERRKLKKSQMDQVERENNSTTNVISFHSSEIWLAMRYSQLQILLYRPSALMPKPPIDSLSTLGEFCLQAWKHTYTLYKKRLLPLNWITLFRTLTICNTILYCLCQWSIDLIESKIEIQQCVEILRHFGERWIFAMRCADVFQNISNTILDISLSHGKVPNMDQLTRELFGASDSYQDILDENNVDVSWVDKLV
# Test: PBM E-score (8-mer binding enrichment) (E-score (-0.5 to 0.5)); higher = stronger / more preferred TF binding; most listed sequences are background and not binding sites
# Settings: protein concentration: 200 nM; construct: GST-full length
# Experimental: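 Universal 'all 10-mer' protein binding microarrays (Agilent AMADID 015681) probed with GST-tagged S. cerevisiae TFs (full-length or DBD) made by in vitro transcription/translation (PURExpress), about 100-200 nM. Bound TF was detected with fluorescent anti-GST. Each ungapped 8-mer (which stands for itself and its reverse complement) is scored by the PBM enrichment score (E-score), a modified Wilcoxon-Mann-Whitney statistic from -0.5 to +0.5, computed with the Universal PBM Analysis Suite. Scale: above 0.35 generally sequence-specific binding.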
row,Sequence,PBM E-score
1,AATTCATG,-0.117
2,CCACTAGC,-0.114
3,CAATGCCC,0.225
4,CACCGATC,0.359
5,AGGTGAAA,0.0237
6,ACTCACAA,-0.209
7,GAACGCGC,0.0925
8,AGAGTGGA,-0.136
9,GCGACGAC,-0.0667
10,GCCGTTCA,0.237
11,GAGACCTA,-0.0713
12,CCATAGAG,-0.189
13,ACCACAAT,-0.132
14,TTCACAAA,-0.00748
15,CAGGGATA,-0.228
16,CAGACGTA,-0.177
17,GACCAAGA,-0.11
18,AAACCGCC,0.302
19,GCTCATCC,-0.182
20,CCCAGCTA,-0.236
21,ACGCCCCC,-0.0024
22,CGCACGTA,0.098
23,TTACCTAA,-0.0673
24,GGGCGTAC,0.14
25,GAATATTA,0.104

row,Sequence,PBM E-score
1,CCAATGCG,-0.208
2,ACCATTTA,-0.0471
3,CTGCGGTA,0.254
4,GTTGAAGA,-0.158
5,AGACGACA,-0.0617
6,ATATCTGA,-0.135
7,ACCATAAG,-0.0546
8,GAGATTGA,-0.141
9,CATTCCCA,-0.187
10,ACCTGGAA,-0.28
11,ATGCCGCA,0.25
12,CTAGCTCC,0.179
13,AGGTCCGA,0.412
14,ACTCTTCT,-0.167
15,GAAGAGGA,-0.123
16,AATGTCTC,0.00508
17,ATTCTAAG,0.0878
18,CCCTCCCC,0.0568
19,AACAATGA,0.0501
20,CCACCCCG,0.266
21,CCTCAAAC,0.0209
22,CAATGCGA,-0.15
23,CGCCCAAC,-0.0675
24,ACCGCTGG,0.236
25,AGGGACAG,-0.257

row,Sequence,PBM E-score
1,AGAGTAAT,-0.033
2,TCATTGCA,-0.116
3,GAACTCGC,-0.267
4,TCTCAACA,-0.119
5,CCCGCGCC,0.243
6,AATTAGCG,0.106
7,AGAACGTA,-0.221
8,AGTAGCCG,0.112
9,ACTTCCAG,-0.184
10,AAAGTCAT,-0.114
11,AGCCATTG,-0.242
12,CACGAGGG,-0.118
13,AGGACTAA,-0.0498
14,AGATCCAC,-0.00803
15,GAGCGGAA,0.308
16,AATGTGAC,-0.19
17,ACAGGTAG,-0.174
18,AGCAAGGA,-0.216
19,CGTGTGCA,-0.0863
20,AAACGCGC,-0.00342
21,CACCCGTC,0.14
22,CAAGTGGG,-0.0971
23,ACTCACTG,-0.21
24,AAGTGTAA,-0.116
25,CAACGGCC,0.243

row,Sequence,PBM E-score
1,AACAACAA,-0.219
2,TACTGCTA,-0.195
3,AGGGCCCT,-0.173
4,ATCTGCTC,-0.117
5,AAACACAT,-0.16
6,GCAGGTTA,0.0704
7,AAATGACT,-0.216
8,ACTGCGGG,0.203
9,ATCAGACG,-0.00265
10,AGTCGTAC,-0.189
11,ATCCTCGG,0.0912
12,TGGAGCAA,-0.26
13,AGAATAGC,-0.0568
14,GCGTTGAC,-0.0261
15,ACGAGGGG,-0.208
16,CCCAATAA,-0.186
17,CCCAGGTA,-0.237
18,CCCCTCGA,-0.121
19,CAATGGGC,-0.188
20,GCTTATAC,0.106
21,AGAGAGTA,0.0964
22,TCTGGAAA,-0.225
23,GAGGCAAC,-0.0197
24,GTTGGTAA,-0.172
25,ACGTCCAA,0.0581

row,Sequence,PBM E-score
1,CGCTGCTA,0.326
2,TCCACCGA,0.176
3,AAGGGATG,-0.184
4,CGTGGAGA,0.102
5,ATGAGCGG,0.262
6,GGCTTAAC,0.172
7,ACGATTCG,0.0117
8,GACACTAA,-0.0425
9,AAGATCAA,-0.219
10,GATCTCAC,-0.111
11,CCGACTAA,0.22
12,TCTCGTCA,-0.14
13,ATCTATGC,-0.0365
14,GTTGCAAA,0.0461
15,AATTAATC,0.0324
16,AATAGCCA,-0.309
17,CTGCATGC,-0.113
18,AGGGTCTC,-0.26
19,CTCCGCGC,0.292
20,AGTGCCTC,-0.215
21,CGCGATAG,0.0818
22,AACAGCCC,0.0328
23,ATCGTACG,-0.0478
24,AAACGCAC,0.11
25,GAGAACTC,-0.0853

row,Sequence,PBM E-score
1,CCCAATGA,-0.219
2,AAGGTGCT,-0.0966
3,TCGAAAGA,-0.267
4,GACTAGGC,-0.0407
5,CTAAGCAC,0.0693
6,CTCCATCC,-0.185
7,GGTATGGA,0.185
8,AACAACCA,-0.198
9,CATCACGG,0.132
10,ACGCGTAG,0.0586
11,ATACAAGA,-0.14
12,GGATCTAC,0.0221
13,AACTGACC,0.0171
14,CGATGTAA,0.0356
15,GCCCAAGC,-0.0482
16,CACGGGAC,0.187
17,AATGCGAC,0.138
18,GGTCGCCA,-0.093
19,AGTAGCGC,0.215
20,GCTTGGAC,-0.0988
21,GCAGCCGC,0.0245
22,CTAAATTA,-0.0176
23,AAAACTTG,-0.105
24,CGGGCCAC,-0.0163
25,CCATCCTA,-0.0996

row,Sequence,PBM E-score
1,ATTAACCC,0.327
2,ACTAGTGA,-0.261
3,TAGAATCA,-0.0379
4,CTCCCTTA,-0.142
5,CCCATGTC,-0.0944
6,CTCGCCCC,0.0443
7,ATAATAAG,-0.0382
8,TAGTAAGA,-0.179
9,AGGCTAAC,-0.166
10,CGGCGGTC,0.355
11,CCTCACTC,-0.127
12,CAACACCC,-0.206
13,GTGTTGTA,-0.122
14,ACATCTAT,-0.0675
15,CTCCAGAA,-0.0921
16,AACAAGTC,-0.171
17,AAGACATA,-0.185
18,CTCGGGGA,0.0793
19,GGACATAA,0.332
20,AGCACCCC,-0.0285
21,AGTGATGA,-0.175
22,GTGAGTTA,-0.103
